Read-outs that look alike come from different tables or passages of the source. The name of at least one read-out is uncertain. Where a SMILES comes first, the peptide text is derived from it.
Assays:
[1] = test system: S. aureus
Method: (§1) In the following experiments, bacterial cells were cultured in 96-well microtiter plates in cation-adjusted Mueller-Hinton Broth (MHB) for 18 h at 37° C. The main strains used were E. coli (K-12 BW25113) (placed in stationary incubator) and S. aureus (Newman Strain) (incubated at 250 r.p.m). Knockout strains (ΔtolcC and ΔychM) were used from the Keio knockout collection (Baba et al., Construction of Escherichia coli K-12 in-frame, single-gene knockout mutants: the Keio collection. Mol Syst Biol 2, 2006 0008, doi:10.1038/msb4100050 (2006)). For MIC determination and checkerboard analyses, Clinical & Laboratory Standards Institute (CLSI) protocol was used. […] DiSC3 loading of S. aureus cells was performed as previously described (Farha et al., Collapsing the proton motive force to identify synergistic combinations against Staphylococcus aureus. Chemistry & biology 20, 1168-1178, doi:10.1016/j.chembiol.2013.07.006 (2013)). CCCP concentration of 20 μM was used. pH adjustments were made by addition of HCl or NaOH. INT assay and ATP bioluminescence assays were performed as previously described (Farha et al., Collapsing the proton motive force to identify synergistic combinations against Staphylococcus aureus. Chemistry & biology 20, 1168-1178, doi:10.1016/j.chembiol.2013.07.006 (2013)). For chemical-genomic studies, the Keio library was grown overnight in cation-adjusted MHB broth, in 384-well plates. From these, treatment plates (25 mM sodium bicarbonate, or a sterile water control) were inoculated and grown for 15 hours at 37° C., in a stationary incubator. Data was normalized according to Mangat et al (Mangat et al., Rank ordering plate data facilitates data visualization and normalization in high-throughput screening. J Biomol Screen 19, 1314-1320, doi:10.1177/1087057114534298 (2014)), with gene products and GO terms mined from EcoCyc. The GFP promoter library (Keseler et al., EcoCyc: fusing model organism databases with systems biology. Nucleic Acids Res 41, D605-612, doi:10.1093/nar/gks1027 (2013)) was grown for 18 hours at ambient temperature with the same inoculation strategy as with the Keio collection. The analysis pipeline of Zaslaver et al (Zaslaver et al., A comprehensive library of fluorescent transcriptional reporters for Escherichia coli. Nat Methods 3, 623-628, doi:10.1038/nmeth895 (2006)) was used to generate maps of promoter activity, from which lists of promoters with increased or decreased activity were compiled.
(§2) Fold enhancement in MICs in the media supplemented with sodium bicarbonate is represented by a positive fold, whereas suppression of activity is represented by a negative fold.
(§3) The effect of sodium bicarbonate on the activity of additional antibacterial agents was investigated. Clinical isolates of various bacteria were obtained from the ATCC and the IHMA.
(§4) The effect of sodium bicarbonate on the activity of cationic antiseptic agents was investigated. Clinical isolates of various bacteria were obtained from the ATCC and the IHMA.

[2] = test system: E. coli; type: cell-based, Escherichia coli
Method: as §1, §2, §3, §4

[3] = antibiotic agents, fold shift in MIC, MHB− vs MHB+

Structure (SMILES): NCC[C@H](O)C(=O)N[C@@H]1C[C@H](N)[C@@H](O[C@H]2O[C@H](CN)[C@@H](O)[C@H](O)[C@H]2O)[C@H](O)[C@H]1O[C@H]1O[C@H](CO)[C@@H](O)[C@H](N)[C@H]1O [Amikacin]
- Fold, S. aureus [1, 3]: −2
- Fold, E. coli [2, 3]: 1

Structure (SMILES): CC1(C)S[C@@H]2[C@H](NC(=O)[C@H](N)c3ccccc3)C(=O)N2[C@H]1C(=O)O [Ampicillin]
- Fold, S. aureus [1]: −8
- Fold, E. coli [2]: −2

Structure (SMILES): CN[C@@H]1[C@@H](O[C@H]2O[C@H](CO)[C@@H](N)[C@H](O)[C@H]2O)OC2C[C@@H](N)[C@@H](O[C@H]3[C@H](O)[C@@H](O)[C@H](N)C[C@@H]3N)OC2[C@@H]1O (stereo partly shown) [Apramycin]
- Fold, S. aureus [1]: −2
- Fold, E. coli [2]: 4

Structure (SMILES): CC[C@H](C)[C@H](N)C1=N[C@H](C(=O)N[C@@H](CC(C)C)C(=O)N[C@H](CCC(=O)O)C(=O)N[C@H](C(=O)N[C@H]2CCCCNC(=O)[C@H](CC(N)=O)NC(=O)[C@@H](CC(=O)O)NC(=O)[C@H](Cc3cnc[nH]3)NC(=O)[C@@H](Cc3ccccc3)NC(=O)[C@H]([C@@H](C)CC)NC(=O)[C@@H](CCCN)NC2=O)[C@@H](C)CC)CS1 [Bacitracin] (HELM PEPTIDE1{[CC[C@H](C)[C@H](N)C1=N[C@H](C(=O)[*:2])CS1].L.[dE].I.K.[NCCC[C@@H](N[*:1])C(=O)[*:2]].I.[dF].H.[dD].N}$PEPTIDE1,PEPTIDE1,5:R3-11:R2$$$V2.0)
- Fold, S. aureus [1]: −2
- Fold, E. coli [2]: 1

Structure (SMILES): NC(=O)c1ccccc1 [Benzamide]
- Fold, S. aureus [1, 3]: 1
- Fold, E. coli [2, 3]: 1

Structure (SMILES): N[C@@H]1CCCCN(c2c(F)cc3c(=O)c(C(=O)O)cn(C4CC4)c3c2Cl)C1 [Besifloxacin]
- Fold, S. aureus [1]: −2
- Fold, E. coli [2]: 8

Structure (SMILES): N[C@@H](C(=O)N[C@@H]1C(=O)N2C(C(=O)O)=C(Cl)CS[C@H]12)c1ccccc1 [Cefaclor]
- Fold, S. aureus [1, 3]: −4
- Fold, E. coli [2, 3]: 1

Structure (SMILES): CCN1CCN(C(=O)N[C@@H](C(=O)N[C@@H]2C(=O)N3C(C(=O)O)=C(CSc4nnnn4C)CS[C@H]23)c2ccc(O)cc2)C(=O)C1=O [Cefoperazone]
- Fold, S. aureus [1]: −16
- Fold, E. coli [2]: 1

Structure (SMILES): CO/N=C(\C(=O)N[C@@H]1C(=O)N2C(C(=O)O)=C(COC(C)=O)CS[C@H]12)c1csc(N)n1 [Cefotaxime]
- Fold, S. aureus [1, 3]: −4
- Fold, E. coli [2, 3]: −2

Structure (SMILES): O=C(N[C@H](CO)[C@H](O)c1ccc([N+](=O)[O-])cc1)C(Cl)Cl [Chloramphenicol]
- Fold, S. aureus [1]: 1
- Fold, E. coli [2]: 1

Structure (SMILES): [H]/N=C(\N/C(=N/[H])NCCCCCCNC(=N)NC(=N)Nc1ccc(Cl)cc1)Nc1ccc(Cl)cc1 [Chlorhexidine]
- Fold, S. aureus [1]: 4
- Fold, E. coli [2]: 2

Structure (SMILES): CC[C@H]1OC(=O)[C@H](C)[C@@H](O[C@H]2C[C@@](C)(OC)[C@@H](O)[C@H](C)O2)[C@H](C)[C@@H](O[C@@H]2O[C@H](C)C[C@H](N(C)C)[C@H]2O)[C@](C)(OC)C[C@@H](C)C(=O)[C@H](C)[C@@H](O)[C@]1(C)O [Clarithromycin]
- Fold, S. aureus [1, 3]: 8
- Fold, E. coli [2, 3]: 8

Structure (SMILES): CCC[C@@H]1C[C@@H](C(=O)N[C@@H]([C@H]2O[C@H](SC)[C@H](O)[C@@H](O)[C@H]2O)[C@H](C)Cl)N(C)C1 [Clindamycin]
- Fold, S. aureus [1, 3]: 2
- Fold, E. coli [2, 3]: 1

Structure (SMILES): Cc1onc(-c2ccccc2Cl)c1C(=O)N[C@@H]1C(=O)N2[C@@H]1SC(C)(C)[C@@H]2C(=O)O [Cloxacillin]
- Fold, S. aureus [1]: −16
- Fold, E. coli [2]: 1

Structure (SMILES): C[C@H]1c2cccc(O)c2C(=O)C2=C(O)[C@]3(O)C(=O)C(C(N)=O)=C(O)[C@@H](N(C)C)[C@@H]3[C@@H](O)[C@@H]21 [Doxycycline]
- Fold, S. aureus [1]: −16
- Fold, E. coli [2]: −4

Structure (SMILES): CCn1cc(C(=O)O)c(=O)c2cc(F)c(N3CCNCC3)nc21 [Enoxacin]
- Fold, S. aureus [1]: −2
- Fold, E. coli [2]: 2

Structure (SMILES): C[C@@H]1O[C@@H]1P(=O)(O)O [Fosfomycin]
- Fold, S. aureus [1]: −4
- Fold, E. coli [2]: −4

Structure (SMILES): O=CN(O)CCCP(=O)(O)O [Fosmidomycin]
- Fold, S. aureus [1]: 1
- Fold, E. coli [2]: −2

Structure (SMILES): CC(=O)O[C@H]1C[C@@]2(C)[C@@H](C[C@@H](O)[C@H]3[C@@]4(C)CC[C@@H](O)[C@@H](C)[C@@H]4CC[C@@]32C)/C1=C(\CCC=C(C)C)C(=O)O [Fusidic acid]
- Fold, S. aureus [1, 3]: −4
- Fold, E. coli [2, 3]: 1

Structure (SMILES): COc1c(N2CCNC(C)C2)c(F)cc2c(=O)c(C(=O)O)cn(C3CC3)c12 (stereo not shown) [Gatifloxacin]
- Fold, S. aureus [1, 3]: −2
- Fold, E. coli [2, 3]: 4

Structure (SMILES): CCCCCCCCCCCCCCCC[N+](C)(C)C.[Br-] [Hexadecyltrimethylammonium bromide]
- Fold, S. aureus [1]: 2
- Fold, E. coli [2]: 4

Structure (SMILES): C[C@H]1COc2c(N3CCN(C)CC3)c(F)cc3c(=O)c(C(=O)O)cn1c23 [Levofloxacin]
- Fold, S. aureus [1]: −2
- Fold, E. coli [2]: 1

Structure (SMILES): CCC[C@@H]1C[C@@H](C(=O)N[C@@H]([C@H]2O[C@H](SC)[C@H](O)[C@@H](O)[C@H]2O)[C@@H](C)O)N(C)C1 [Lincomycin]
- Fold, S. aureus [1, 3]: 4
- Fold, E. coli [2, 3]: 4

Structure (SMILES): CC(=O)NC[C@H]1CN(c2ccc(N3CCOCC3)c(F)c2)C(=O)O1 [Linezolid]
- Fold, S. aureus [1]: 1
- Fold, E. coli [2]: 1

Structure (SMILES): CCn1cc(C(=O)O)c(=O)c2cc(F)c(N3CCNC(C)C3)c(F)c21 (stereo not shown) [Lomefloxacin]
- Fold, S. aureus [1, 3]: −2
- Fold, E. coli [2, 3]: 4

Structure (SMILES): C/C(=C\C(=O)OCCCCCCCCC(=O)O)C[C@@H]1OC[C@H](C[C@@H]2O[C@H]2[C@@H](C)[C@H](C)O)[C@@H](O)[C@H]1O [Mupirocin]
- Fold, S. aureus [1, 3]: −4
- Fold, E. coli [2, 3]: 1

Structure (SMILES): CC1CCc2c(N3CCC(O)CC3)c(F)cc3c(=O)c(C(=O)O)cn1c23 (stereo not shown) [Nadifloxacin]
- Fold, S. aureus [1, 3]: −4
- Fold, E. coli [2, 3]: −4

Structure (SMILES): CCOc1ccc2ccccc2c1C(=O)N[C@@H]1C(=O)N2[C@@H]1SC(C)(C)[C@@H]2C(=O)O [Nafcillin]
- Fold, S. aureus [1, 3]: −4
- Fold, E. coli [2, 3]: −2

Structure (SMILES): CCn1cc(C(=O)O)c(=O)c2ccc(C)nc21 [Nalidixic acid]
- Fold, S. aureus [1]: −4
- Fold, E. coli [2]: −4

Structure (SMILES): CCn1cc(C(=O)O)c(=O)c2cc(F)c(N3CCNCC3)cc21 [Norfloxacin]
- Fold, S. aureus [1]: −2
- Fold, E. coli [2]: 2

Structure (SMILES): CO[C@@H]1[C@@H](OC(N)=O)[C@@H](O)[C@H](Oc2ccc3c(O)c(NC(=O)c4ccc(O)c(CC=C(C)C)c4)c(=O)oc3c2C)OC1(C)C [Novobiocin]
- Fold, S. aureus [1]: −16
- Fold, E. coli [2]: −8

Structure (SMILES): NC[C@@H]1O[C@H](O[C@H]2[C@@H](O)[C@H](O[C@@H]3[C@@H](O)[C@H](N)C[C@H](N)[C@H]3O[C@H]3O[C@H](CO)[C@@H](O)[C@H](O)[C@H]3N)O[C@@H]2CO)[C@H](N)[C@@H](O)[C@@H]1O [Paromomycin]
- Fold, S. aureus [1]: 1
- Fold, E. coli [2]: 2

Structure (SMILES): CCN1CCN(C(=O)N[C@@H](C(=O)N[C@@H]2C(=O)N3[C@@H]2SC(C)(C)[C@@H]3C(=O)O)c2ccccc2)C(=O)C1=O [Piperacillin]
- Fold, S. aureus [1]: −4
- Fold, E. coli [2]: 2

Structure (SMILES): C=C[C@]1(C)C[C@@H](OC(=O)CO)[C@]2(C)[C@H](C)CC[C@]3(CCC(=O)[C@H]32)[C@@H](C)[C@@H]1O [Pleuromutilin]
- Fold, S. aureus [1, 3]: 1
- Fold, E. coli [2, 3]: 1

Structure (SMILES): CC[C@H]1OC(=O)[C@H](C)[C@@H](O[C@H]2C[C@@](C)(OC)[C@@H](O)[C@H](C)O2)[C@H](C)[C@@H](O[C@@H]2O[C@H](C)C[C@H](N(C)C)[C@H]2O)[C@](C)(O)C[C@@H](C)/C(=N\OCOCCOC)[C@H](C)[C@@H](O)[C@]1(C)O [Roxithromycin]
- Fold, S. aureus [1, 3]: 16
- Fold, E. coli [2, 3]: 8

Structure (SMILES): C[C@@H]1CN(c2c(F)c(N)c3c(=O)c(C(=O)O)cn(C4CC4)c3c2F)C[C@H](C)N1 [Sparfloxacin]
- Fold, S. aureus [1, 3]: −2
- Fold, E. coli [2, 3]: 2

Structure (SMILES): CN[C@@H]1[C@H](O)[C@H](NC)[C@H]2O[C@@]3(O)C(=O)C[C@@H](C)O[C@H]3O[C@@H]2[C@H]1O [Spectinomycin]
- Fold, S. aureus [1]: 8
- Fold, E. coli [2]: 4

Structure (SMILES): [H]/N=C(/N)N[C@H]1[C@H](O)[C@@H](O)[C@H](O[C@@H]2O[C@@H](C)[C@](O)(C=O)[C@H]2O[C@@H]2O[C@@H](CO)[C@H](O)[C@@H](O)[C@@H]2NC)[C@@H](N/C(N)=N\[H])[C@@H]1O [Streptomycin]
- Fold, S. aureus [1, 3]: 4
- Fold, E. coli [2, 3]: 4
